The whole screen tested about 310,000 compounds, of which about 14,000 (4.5%) showed an effect of 50% or more. The effect is printed as a negative number. The list shows a part of the results.
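Also: peak tail current of the secondary pulse compared with the same well before compound.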

This test deals with human ether-à-go-go-related gene (hERG) potassium channel (human, UniProt Q12809). Briefly: primary screen, population patch clamp on CHO cells stably expressing hERG.
Sequence of human ether-à-go-go-related gene (hERG) potassium channel (Q12809 whole entry, looked up): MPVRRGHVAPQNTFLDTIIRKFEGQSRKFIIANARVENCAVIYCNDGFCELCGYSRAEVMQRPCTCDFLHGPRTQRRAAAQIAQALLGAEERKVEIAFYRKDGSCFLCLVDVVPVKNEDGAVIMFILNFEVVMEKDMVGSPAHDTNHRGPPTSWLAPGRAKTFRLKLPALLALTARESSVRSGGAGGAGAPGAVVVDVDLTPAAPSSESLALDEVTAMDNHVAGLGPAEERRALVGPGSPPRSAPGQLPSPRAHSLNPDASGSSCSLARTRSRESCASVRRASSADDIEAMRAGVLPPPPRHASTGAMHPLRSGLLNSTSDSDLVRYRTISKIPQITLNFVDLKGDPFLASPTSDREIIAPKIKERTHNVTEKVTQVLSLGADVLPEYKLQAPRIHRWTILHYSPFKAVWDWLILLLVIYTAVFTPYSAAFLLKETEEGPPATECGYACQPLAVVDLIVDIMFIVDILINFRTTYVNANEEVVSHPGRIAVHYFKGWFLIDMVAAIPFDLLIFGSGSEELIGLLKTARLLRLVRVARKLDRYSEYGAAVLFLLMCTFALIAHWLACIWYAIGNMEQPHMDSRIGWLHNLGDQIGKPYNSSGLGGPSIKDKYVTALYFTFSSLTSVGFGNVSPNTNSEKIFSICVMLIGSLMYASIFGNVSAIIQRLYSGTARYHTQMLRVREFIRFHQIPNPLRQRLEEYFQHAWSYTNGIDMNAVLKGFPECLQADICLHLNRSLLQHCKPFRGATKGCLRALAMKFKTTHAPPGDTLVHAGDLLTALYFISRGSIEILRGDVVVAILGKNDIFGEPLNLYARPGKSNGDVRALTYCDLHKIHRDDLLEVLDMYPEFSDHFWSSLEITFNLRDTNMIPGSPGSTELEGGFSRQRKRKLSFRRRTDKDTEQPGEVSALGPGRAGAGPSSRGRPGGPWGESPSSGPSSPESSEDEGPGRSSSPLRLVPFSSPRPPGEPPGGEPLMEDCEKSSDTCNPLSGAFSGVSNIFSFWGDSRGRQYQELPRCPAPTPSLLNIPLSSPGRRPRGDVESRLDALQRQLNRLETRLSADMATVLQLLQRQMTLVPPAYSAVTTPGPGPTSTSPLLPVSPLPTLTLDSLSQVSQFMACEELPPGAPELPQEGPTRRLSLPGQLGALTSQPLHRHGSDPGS
For `O=C(NCCCN1CCOCC1)c1cccc(NS(=O)(=O)c2ccc(Br)cc2)c1`, the “hERG current change (%, negative = inhibition) at 10uM” value is given as -19.9%.

`CC(NC(=O)C1CCN(C(=O)[C@@H]2Cc3ccccc3CN2)CC1)c1ccccc1` (stereo partly drawn): the “hERG current change (%, negative = inhibition) at 10uM” value is recorded as -25.7%.

For `CC(/C=C/c1ccc2c(c1)OCO2)=N/NC(=O)CNc1ccc(C)cc1`, the “hERG current change (%, negative = inhibition) at 10uM” value is listed as 11.3%.

As for `CCNC(=O)NC(=O)C(C)OC(=O)Cc1coc2cc3c(cc12)CCC3` (stereo not drawn), the “hERG current change (%, negative = inhibition) at 10uM” value came out at 26.6%.

For the molecule `Fc1ccc(C2CC(c3ccco3)=Nc3ccccc3S2)cc1` (stereo not drawn), the “hERG current change (%, negative = inhibition) at 10uM” value came to 12.1%.

As to `CCc1cccc(NC(=O)NC2CCCCC2)c1`, the “hERG current change (%, negative = inhibition) at 10uM” value is on record as 18%.

Consider `COC(=O)N[C@H](c1ccccc1)[C@@]1(C)C[C@@H]1[C@@H](C)C(=O)Nc1ccc2ccccc2c1`, for which the “hERG current change (%, negative = inhibition) at 10uM” value came to 2.1%.

Consider `CN1CCN(CC(=O)Nc2ccccc2Sc2ccccc2)CC1.O=C(O)C(=O)O`, for which the “hERG current change (%, negative = inhibition) at 10uM” value is on record as -65.3%.

Take `CCCCCC(O)(c1ccc(OCC)cc1)C(CN1CCOCC1)c1ccccc1.Cl` (stereo not drawn): the “hERG current change (%, negative = inhibition) at 10uM” value is listed as 11.1%.

Regarding `CCOC(=O)COc1ccc2c(=O)cc(-c3ccccc3)oc2c1`, the “hERG current change (%, negative = inhibition) at 10uM” value was 2.54%.

Turning to `FC(F)(F)c1nnc2ccc(N3CCOCC3)nn12`, the “hERG current change (%, negative = inhibition) at 10uM” value is listed as 11%.

For `COc1cccc(C2/C(=C(\O)c3ccc4c(c3)OCCO4)C(=O)C(=O)N2CCCN2CCOCC2)c1OC` (stereo not drawn), the “hERG current change (%, negative = inhibition) at 10uM” value stood at 9%.

As to `COCCCn1c(SCC(=O)Nc2ccc(NC(=O)c3ccco3)c(OC)c2)nc2ccccc2c1=O`, the “hERG current change (%, negative = inhibition) at 10uM” value is reported as -12.4%.

For the molecule `Cn1nccc1C(=O)Nn1cnnc1`, the “hERG current change (%, negative = inhibition) at 10uM” value is reported as 14%.

With `Cc1cccc(N(Cc2ccccc2)C(=O)c2ccc(CS(C)(=O)=O)cc2)c1`, the “hERG current change (%, negative = inhibition) at 10uM” value was -9.49%.

With `CC1CC(C)CN(C2CCCCC2NS(=O)(=O)c2ccc(Cl)cc2)C1` (stereo not drawn), the “hERG current change (%, negative = inhibition) at 10uM” value is on record as -30.9%.

Turning to `Cc1cccc(OCc2nnc(SCn3nnc4ccccc4c3=O)o2)c1`, the “hERG current change (%, negative = inhibition) at 10uM” value is given as -22.4%.

Turning to `O=c1[nH]cccc1-c1nc2cc(Cl)ccc2n1Cc1ccccc1`, the “hERG current change (%, negative = inhibition) at 10uM” value was -12%.

For the molecule `O=C(N/N=C1\CCCc2ccccc21)c1cccc(Br)c1`, the “hERG current change (%, negative = inhibition) at 10uM” value is -2.72%.

As to `CC(C)Cc1cc(C(=O)O)c2ccccc2n1`, the “hERG current change (%, negative = inhibition) at 10uM” value worked out at 0.924%.

For the molecule `COc1cc(C(=O)Nc2cc(C(F)(F)F)ccc2Cl)cc(OC)c1OC`, the “hERG current change (%, negative = inhibition) at 10uM” value was 7.4%.

For the molecule `Cc1cccc(/C=N/NC(=O)c2ccc(NC(=O)c3ccccc3C)cc2)n1`, the “hERG current change (%, negative = inhibition) at 10uM” value was found to be 0.216%.

Turning to `N/C(=N\N=C\c1ccc([N+](=O)[O-])cc1)c1nonc1N`, the “hERG current change (%, negative = inhibition) at 10uM” value turned out to be 16.1%.

As for `COc1cc(C(=O)NCc2nnc(SCC(=O)N3CCOCC3)o2)cc(OC)c1OC`, the “hERG current change (%, negative = inhibition) at 10uM” value was 17.2%.

Values taken from article PMC4336329 (PLoS ONE, 2015).
